Data from the supplement of paper PMC9334596.
Several values for one entry are separate records, joined by “and”; a condition that tells them apart may be missing. Identical values can stand only once. Whole data set: some 5,300 compounds, median “PER2::LUC luminescence relative to vehicle control” near 0.96, cut for the highest 2% near 1.3. The list shows a part of the results.

System: mPer2Luc MEF
Assay: PER2::LUC luminescence relative to vehicle control (fold of vehicle); higher = higher PER2::LUC reporter signal
Conditions: 10 µM
Summary of the method: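 In 384-well plates, ~3000 mPer2Luc reporter mouse embryonic fibroblasts per well were cultured in DMEM with 10% FBS at 37 °C and 5% CO2 for 48 h before compounds from commercial libraries were added at 10 μM. ONE-Glo luciferase readings were taken 24 h and 30 h after treatment. Each value is PER2::LUC luminescence given as fold of vehicle control.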

| SMILES | PER2::LUC luminescence (time after treatment 24 h) | PER2::LUC luminescence (time after treatment 30 h) |
| --- | --- | --- |
| CN(C)c1nc(N(C)C)nc(N(C)C)n1 | 1.05 | 1 |
| COc1cc2c(cc1-c1c(C)noc1C)ncc1[nH]c(=O)n([C@H](C)c3ccccn3)c12 | 0.115 and 0.124 | 0.147 and 0.112 |
| CCCCCCCCCCCCCCCCCC(=O)OC(CC(=O)O)C[N+](C)(C)C (racemic) | 0.909 | 0.786 |
| O=C1c2ccc(Nc3ccc(F)cc3F)cc2CCc2ccc(OC[C@H](O)CO)cc21 | 0.669 | 0.939 |
| CCCNCC(O)COc1ccccc1C(=O)CCc1ccccc1 (centres undefined) | 0.74 and 0.541 | 0.72 and 0.75 |
| NC(=O)C(c1ccccc1)(c1ccccc1)[C@@H]1CCN(CCc2ccc3c(c2)CCO3)C1 | 0.757 | 0.849 |
| COc1cc([C@@H]2c3cc4c(cc3[C@@H](O[C@@H]3O[C@@H]5CO[C@@H](C)O[C@H]5[C@H](O)[C@H]3O)[C@H]3COC(=O)[C@H]23)OCO4)cc(OC)c1O | 0.658 | 0.601 |
| COc1ccccc1OCC(O)CN1CCN(CC(=O)Nc2c(C)cccc2C)CC1 (centres undefined) | 0.76 and 0.89 | 0.855 and 0.722 |
| O=[N+]([O-])c1cccc2cn[nH]c12 | 0.997 | 0.936 |
| O=C(Nc1ccccc1)Nc1ccccc1 | 1.57 | 1.44 |
| CN(C)C(=S)NN=C(c1ccccn1)c1ccccn1 | 1.09 | 1.04 |
| CNS(=O)(=O)C[C@H]1CC[C@H](N(C)c2[nH]cnc3nccc2-3)CC1 | 0.907 | 0.797 |
| COc1cc(/C=C(\C#N)C(=O)Nc2nnc(C(F)(F)F)s2)ccc1OCc1ccc(C(F)(F)F)cc1C(F)(F)F | 0.149 | 0.165 |
| CNC(=S)NCCSCc1[nH]cnc1C | 1.06 | 1.06 |
| C[C@H]1C[C@@H]2[C@H]([C@@H](O)C[C@@]3(C)[C@H]2CC[C@]3(O)C(=O)CO)[C@@]2(C)C=CC(=O)C=C12 | 0.729 | 1.16 |
| O=C(O)c1cc(C(=O)O)c(C(=O)N(Cc2cccc(Oc3ccccc3)c2)[C@H]2CCCc3ccccc32)cc1C(=O)O | 1.06 and 0.623 | 0.885 and 0.626 |
| CCOc1c2c(c(OCC)c3ccccc13)C(=O)N(c1ccc(CC(=O)NS(=O)(=O)c3ccccc3)cc1)C2 | 0.997 | 1.02 |
| CNCC(O)c1ccc(OC(=O)C(C)(C)C)c(OC(=O)C(C)(C)C)c1 (centres undefined) | 0.854 | 1.16 |
| COc1ccc([C@]2(C#N)CC[C@@H](C(=O)O)CC2)cc1OC1CCCC1 | 0.83 | 0.929 |
| CCN(CC)CCc1nc(-c2ccccc2)no1 | 0.833 and 1.1 | 0.938 and 1.04 |
| Nc1ncnc2c1c(-c1ccc(Oc3ccccc3)cc1)cn2C1CCCC1 | 0.889 | 0.797 |

| SMILES | PER2::LUC luminescence (time after treatment 24 h) | PER2::LUC luminescence (time after treatment 30 h) |
| --- | --- | --- |
| O=C(NCCO)c1cccc(-c2cc(Nc3ccc(OC(F)(F)F)cc3)ncn2)c1 | 1.03 | 1.02 |
| C/C=C(/C)C(=O)O[C@H]1CC(C)=CC(=O)[C@@]2(C)CC[C@@](O)(C(C)C)[C@H]12 | 1.01 | 0.988 |
| CCc1cn([C@H]2C[C@H](O)[C@@H](CO)O2)c(=O)[nH]c1=O | 0.962 and 0.859 | 0.942 and 0.798 |
| CC(C)NC[C@@H](O)COc1cccc2ccccc12 | 0.942 and 0.869 | 0.975 and 0.894 |
| C[C@H](CCC(=O)NCC(=O)NCCS(=O)(=O)O)[C@H]1CC[C@H]2[C@@H]3[C@H](O)C[C@@H]4C[C@H](O)CC[C@]4(C)[C@H]3C[C@H](O)[C@]12C | 0.886 | 0.904 |
| O=S(=O)(O)NC1CCCCC1 | 0.919 | 1.05 |
| C[n+]1ccc(C=Cc2ccc3ccccc3c2)cc1 | 0.908 | 1.07 |
| C[C@@H]1O[C@@H](O[C@H]2[C@H](Oc3cc(O)c4c(=O)cc(-c5ccc(O)cc5)oc4c3)O[C@H](CO)[C@@H](O)[C@@H]2O)[C@H](O)[C@H](O)[C@H]1O | 0.841 | 0.85 |
| COc1cc2c(c(OC)c1OC)-c1ccc(OC)c(=O)cc1[C@@H](NC=O)CC2 | 0.938 | 0.84 |
| CCNC(=O)NS(=O)(=O)c1sc(CC(C)C)cc1-c1ccc(Cn2c(-c3ccccc3)nc(OC)c2C=O)cc1 | 0.994 | 0.997 |
| Nc1nc2ccc(Cl)cc2c2nc(-c3ccco3)nn12 | 1.08 and 0.859 and 0.779 | 1.04 and 0.977 and 0.99 |
| CCC(C)N(C)C(=O)c1cc2ccccc2c(-c2ccccc2Cl)n1 (centres undefined) | 0.976 | 0.86 |
| C[C@@H]1CCN(C(=O)CC#N)C[C@@H]1N(C)c1ncnc2[nH]ccc12 | 1.22 and 1.07 | 1.2 and 1.23 |
| CN(C)[C@@H]1C(O)=C(C(=O)NCN2CCCC2)C(=O)[C@@]2(O)C(O)=C3C(=O)c4c(O)cccc4[C@@](C)(O)[C@H]3C[C@@H]12 | 1 | 0.908 |
| O=S(=O)([O-])NC1CCCCC1.[Na+] | 0.938 | 1.02 |
| Cc1c(N(C)CS(=O)(=O)O)c(=O)n(-c2ccccc2)n1C | 0.551 | 0.918 |
| CCOC(=O)Nc1cc(-c2ccc(C)c(NS(C)(=O)=O)c2)nn2c(C)nnc12 | 0.132 | 0.135 |
| COc1cc2c3cc1Oc1c(OC)c(OC)cc4c1[C@@H](Cc1ccc(O)c(c1)Oc1ccc(cc1)C[C@@H]3N(C)CC2)N(C)CC4 | 0.716 | 0.772 |
| CC(NCCC(c1ccccc1)c1ccccc1)c1ccccc1 (centres undefined) | 0.552 | 0.689 |
| O=c1[nH]c(=O)n(C2CCCO2)cc1F (centres undefined) | 1.33 | 1 |
| Cc1cc2c(F)c(Oc3ncnn4cc(OC[C@@H](C)OC(=O)[C@H](C)N)c(C)c34)ccc2[nH]1 | 0.73 | 0.734 |

| SMILES | PER2::LUC luminescence (time after treatment 24 h) | PER2::LUC luminescence (time after treatment 30 h) |
| --- | --- | --- |
| Nc1ncnc2c1c(I)cn2[C@@H]1C[C@H](N)[C@@H](O)[C@H]1O | 0.874 | 0.966 |
| CN1CCN(c2c(F)cc3c(=O)c(C(=O)O)cn(CCF)c3c2F)CC1 | 1.1 | 0.943 |
| C[N+](C)(C)CC[N+]1(C)Cc2c(Cl)c(Cl)c(Cl)c(Cl)c2C1 | 0.91 | 0.954 |
| C[C@H](CCC(=O)O)[C@H]1CC[C@H]2[C@@H]3[C@H](O)C[C@@H]4C[C@H](O)CC[C@]4(C)[C@H]3CC[C@]12C | 0.871 and 0.894 | 0.984 and 0.895 |
| NCC(O)CC(=O)O (centres undefined) | 1.23 and 1.06 | 1.56 and 0.991 |
| NCCOCCOCCNC(=O)Cc1ccc(Nc2nc(NCc3ccc(F)cc3)nc(NCC3CCCCC3)n2)cc1 | 1.09 | 1.03 |
| C=CC(=O)Nc1cccc(Oc2nc(Nc3ccc(N4CCN(C)CC4)cc3OC)ncc2Cl)c1 | 0.827 | 1 |
| O=C(/C=C/c1ccc(O)c(O)c1)OCCc1ccccc1 | 0.173 | 0.361 |
| NC(=O)c1ccccc1Nc1ccnc(Nc2cccc(O)c2)n1 | 0.392 | 0.446 |
| N[C@](CC1c2ccccc2Oc2ccccc21)(C(=O)O)[C@H]1C[C@@H]1C(=O)O | 0.942 | 1.05 |
| NNc1nncc2ccccc12 | 1.17 | 1.28 |
| CC(=O)OCC(CCn1cnc2cnc(N)nc21)COC(C)=O | 0.983 | 1.13 |
| COc1ccc([C@@H]2CC(=O)c3c(O)cc(O[C@@H]4O[C@H](CO)[C@@H](O)[C@H](O)[C@H]4O[C@@H]4O[C@@H](C)[C@H](O)[C@@H](O)[C@H]4O)cc3O2)cc1O | 0.937 | 0.89 |
| C1CNCCN1 | 0.982 | 0.915 |
| N[C@@H]1c2cccnc2[C@H](OC(=O)N2CCC(n3c(=O)[nH]c4ncccc43)CC2)CC[C@H]1c1cccc(F)c1F | 0.845 | 1.04 |
| COc1c2occc2c(OC)c2c(=O)cc(C)oc12 | 0.927 | 0.836 |
| CC[C@H](C)C(=O)O[C@H]1CCC=C2C=C[C@H](C)[C@H](CC[C@@H]3C[C@@H](O)CC(=O)O3)[C@H]21 | 0.611 | 0.612 |
| Nc1cc(C(Cl)=C(Cl)Cl)c(S(N)(=O)=O)cc1S(N)(=O)=O | 0.921 | 0.98 |
| Cc1ccccc1CN1C2=NCCN2C(=O)C2=C1CCN(Cc1ccccc1)C2 | 0.952 | 0.903 |
| CC(=O)O[C@H]1CC[C@@]2(C)[C@@H](CC[C@@H]3[C@@H]2CC(=O)[C@]2(C)[C@@H]4[C@H](C[C@@H]32)O[C@]2(CC[C@@H](C)CO2)[C@H]4C)C1 | 0.96 | 0.922 |
| COC(=O)/C=C/C(C)=C\C=C\C(C)=C\C=C\C=C(C)\C=C\C=C(C)\C=C\C(=O)O | 1.01 | 0.977 |

| SMILES | PER2::LUC luminescence (time after treatment 24 h) | PER2::LUC luminescence (time after treatment 30 h) |
| --- | --- | --- |
| CC(=O)[C@]1(O)Cc2c(O)c3c(c(O)c2[C@@H](O[C@H]2C[C@H](N)[C@H](O)[C@H](C)O2)C1)C(=O)c1ccccc1C3=O | 0.963 and 0.984 | 0.986 and 0.828 |
| O=c1oc2ccccc2c(O)c1Cc1c(O)c2ccccc2oc1=O | 1.04 and 0.944 | 1.07 and 0.963 |
| Cn1ccc2cc(NC(=O)Nc3cccnc3)ccc21 | 1.15 | 0.855 |
| Cc1nc(=O)c2cc(CN(C)c3ccc(C(=O)N[C@@H](CCC(=O)O)C(=O)O)s3)ccc2[nH]1 | 0.801 | 0.82 |
| COC(=O)CCSCc1ccc(-c2onc(C)c2NC(=O)OC(C)c2ccccc2Cl)cc1 (centres undefined) | 0.999 | 0.999 |
| C[C@H](Nc1cc(NS(=O)(=O)N2CCC2)nc(SCc2cccc(F)c2F)n1)[C@@H](O)CO | 1.06 | 0.94 |
| CC(/C=C1\SC(=S)N(CC(=O)O)C1=O)=C\c1ccccc1 | 0.958 | 1.09 |
| CC(=O)Oc1cc(OC(C)=O)c2c(c1)O[C@H](c1ccc(OC(C)=O)c(OC(C)=O)c1)[C@H](OC(C)=O)C2 | 0.969 | 0.871 |
| Nc1nc(=S)c2[nH]cnc2[nH]1 | 0.514 | 0.752 |
| O=C1c2ccccc2C(=O)c2c1ccc(O)c2O | 1.03 | 0.854 |
| CN(C)CCC[C@@]1(c2ccc(F)cc2)OCc2cc(C#N)ccc21 | 0.914 and 0.716 | 0.905 and 0.744 |
| CC(=O)N[C@@H](CCC(=O)O)C(=O)O | 0.919 | 0.822 |
| CCCC(=O)Nc1ncnc2c1ncn2[C@@H]1O[C@@H]2COP(=O)(O)O[C@H]2[C@H]1OC(=O)CCC | 1.04 | 1.13 |
| CC1=CC(=O)NS(=O)(=O)O1 | 0.908 | 0.814 |
| O=C(CNC(=O)c1ccc(Cl)cc1)NO | 1 | 0.905 |
| CN1CCCC(n2nc(Cc3ccc(Cl)cc3)c3ccccc3c2=O)CC1 (centres undefined) | 0.596 and 0.594 | 0.705 and 0.501 |
| CN1CCCCC1CCN1c2ccccc2Sc2ccc([S+](C)[O-])cc21 (centres undefined) | 0.759 and 0.735 | 0.773 and 0.766 |
| COc1cc(OC)c(C=C2C(=O)Nc3ccccc32)c(OC)c1 | 0.404 | 0.575 |
| O=C(O[C@H]1CN2CCC1CC2)N1CCc2ccccc2[C@@H]1c1ccccc1 | 0.801 and 0.735 | 0.812 and 0.74 |
